This passage reports normalised cell viability results from the supplement of paper PMC6609913.

Counter-ions that a name gives are not always drawn. ± gives the standard deviation of the averaged measurements. In all, about 1,300 compounds were measured (“normalised cell viability”: median about 1, lowest 2% from about 0.15 on). The list shows a part of the results.

The test relates to V-C8 + BRCA2 (BRCA2-proficient hamster cells). The test is described as follows: normalised cell viability (fraction of plate median); higher = more viable cells (less toxic). Conditions: 5 µM. The method, boiled down:
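Hamster V-C8 cells lacking BRCA2 and V-C8 cells with BRCA2 restored were seeded in 96-well plates. Library drugs (10 mM DMSO stocks) were added 24 h later at 5 μM in 100 μl medium, next to DMSO control wells, for 3 days (screen 1) or 6 days (screen 2). Cell viability was read by resazurin assay, median-plate normalised (modified robust per cent of sample), and triplicate wells were averaged.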

In the case of `C[C@]12C=CC(=O)C=C1CC[C@H]1[C@@H]3C[C@@H](O)[C@](O)(C(=O)CO)[C@@]3(C)C[C@H](O)[C@@]12F` [Triamcinolone], the normalised cell viability was 1.08 ± 0.038 (treatment time: 3 days) and 1.07 ± 0.034 (treatment time: 6 days).

Turning to `CC1(C)O[C@@H]2C[C@H]3[C@@H]4CCC5=CC(=O)CC[C@]5(C)[C@@]4(F)[C@@H](O)C[C@]3(C)[C@]2(C(=O)CCl)O1` [Halcinonide], the normalised cell viability by setting is: (treatment time: 3 days) 1.18 ± 0.2; (treatment time: 6 days) 1.06 ± 0.03.

As for `CCN(CC)C(=O)/C(C#N)=C/c1cc(O)c(O)c([N+](=O)[O-])c1` [Entacapone], the normalised cell viability runs as follows: (treatment time: 3 days) 0.944 ± 0.013; (treatment time: 6 days) 1.03 ± 0.03.

Regarding `OC(c1cc(C(F)(F)F)nc2c(C(F)(F)F)cccc12)C1CCCCN1` (stereo unspecified) [Mefloquine hydrochloride], the normalised cell viability runs as follows: (treatment time: 3 days) 0.607 ± 0.067; (treatment time: 6 days) 0.891 ± 0.041.

Regarding `CNCCCC12CCC(c3ccccc31)c1ccccc12` [Maprotiline hydrochloride], the normalised cell viability is 1.01 ± 0.053 (treatment time: 3 days) and 0.812 ± 0.032 (treatment time: 6 days).

Take `C[C@@H]1C[C@H]2[C@@H]3C[C@H](F)C4=CC(=O)C=C[C@]4(C)[C@@]3(Cl)[C@@H](O)C[C@]2(C)[C@H]1C(=O)COC(=O)C(C)(C)C` [Clocortolone pivalate]: the normalised cell viability reads like this: (treatment time: 3 days) 1.03 ± 0.27; (treatment time: 6 days) 0.899 ± 0.07.

As for `CCCCCNC(=N)N/N=C/c1c[nH]c2ccc(OC)cc12` [Tegaserod maleate], the normalised cell viability (treatment time: 3 days) amounted to 0.1362 ± 0.0013 and the normalised cell viability (treatment time: 6 days) is 0.155 ± 0.022.

On to `NS(=O)(=O)c1cc(Cl)c(Cl)c(S(N)(=O)=O)c1` [Dichlorphenamide], for which the normalised cell viability by setting is: (treatment time: 3 days) 1.09 ± 0.05; (treatment time: 6 days) 0.961 ± 0.035.

In the case of `CCN1CCCC(OC(=O)C(c2ccccc2)c2ccccc2)C1` (stereo unspecified) [Piperidolate hydrochloride], the normalised cell viability (treatment time: 3 days) was found to be 1.09 ± 0.039 and the normalised cell viability (treatment time: 6 days) is 1.07 ± 0.06.

For the molecule `CN(C)CCCSC(=N)N` [Dimaprit dihydrochloride], the normalised cell viability is, setting by setting: (treatment time: 3 days) 0.995 ± 0.046; (treatment time: 6 days) 0.955 ± 0.019.

On to `Cc1onc(-c2c(F)cccc2Cl)c1C(=O)N[C@@H]1C(=O)N2[C@@H]1SC(C)(C)[C@@H]2C(=O)O` [Flucloxacillin sodium], for which the normalised cell viability runs as follows: (treatment time: 3 days) 1.02 ± 0.065; (treatment time: 6 days) 0.984 ± 0.016.

As for `C[C@H](Cc1cc2c(c(C(N)=O)c1)N(CCCO)CC2)NCCOc1ccccc1OCC(F)(F)F` [Silodosin], the normalised cell viability by setting is: (treatment time: 3 days) 0.981 ± 0.025; (treatment time: 6 days) 1.02 ± 0.055.

For `O=C(NCCN1CCOCC1)c1ccc(Cl)cc1` [Moclobemide], the normalised cell viability reads like this: (treatment time: 3 days) 1.08 ± 0.021; (treatment time: 6 days) 0.989 ± 0.045.

For the molecule `CN1C(=O)OC(C)(C)C1=O` [Trimethadione], the normalised cell viability by setting is: (treatment time: 3 days) 1.12 ± 0.055; (treatment time: 6 days) 1.02 ± 0.077.

As for `CC(=O)CCCCn1c(=O)c2c(ncn2C)n(C)c1=O` [Pentoxifylline], the normalised cell viability (treatment time: 3 days) was determined as 1.084 ± 0.0065 and the normalised cell viability (treatment time: 6 days) turned out to be 1.05 ± 0.065.

For the molecule `CN(C/C=C/c1ccccc1)Cc1cccc2ccccc12` [Naftifine hydrochloride], the normalised cell viability is 0.211 ± 0.0033 (treatment time: 3 days) and 0.243 ± 0.015 (treatment time: 6 days).

Take `OCCN1CCN(CCCN2c3ccccc3C=Cc3ccccc32)CC1` [Opipramol dihydrochloride]: the normalised cell viability by setting is: (treatment time: 3 days) 1.043 ± 0.0039; (treatment time: 6 days) 0.999 ± 0.018.

As for `CC(C)NC[C@H](O)COc1cccc2ccccc12` [(S)-propranolol hydrochloride], the normalised cell viability turned out to be 0.997 ± 0.02 (treatment time: 3 days) and 1.05 ± 0.075 (treatment time: 6 days).

Consider `CNC(=O)c1c(I)c(C(=O)NCC(=O)Nc2c(I)c(C(=O)O)c(I)c(C(=O)NCCO)c2I)c(I)c(N(C)C(C)=O)c1I` [Ioxaglic acid], for which the normalised cell viability reads like this: (treatment time: 3 days) 1 ± 0.058; (treatment time: 6 days) 1.11 ± 0.086.

Consider `CCCCNc1cc(C(=O)O)cc(S(N)(=O)=O)c1Oc1ccccc1` [Bumetanide], for which the normalised cell viability reads like this: (treatment time: 3 days) 1.03 ± 0.026; (treatment time: 6 days) 1.06 ± 0.12.

Take `CC(=O)Oc1ccccc1C(=O)Oc1ccccc1C(=O)O` [Acetylsalicylsalicylic acid]: the normalised cell viability is, setting by setting: (treatment time: 3 days) 1.07 ± 0.061; (treatment time: 6 days) 1.04 ± 0.066.

For `CC(C)n1c(/C=C/C(O)CC(O)CC(=O)O)c(-c2ccc(F)cc2)c2ccccc21` (stereo unspecified) [Fluvastatin sodium salt], the normalised cell viability is, setting by setting: (treatment time: 3 days) 0.134 ± 0.0077; (treatment time: 6 days) 0.155 ± 0.013.

Turning to `Cc1ccnc(NS(=O)(=O)c2ccc(N)cc2)n1` [Sulfamerazine], the normalised cell viability runs as follows: (treatment time: 3 days) 1.02 ± 0.062; (treatment time: 6 days) 0.859 ± 0.059.

`C[C@H]1NC(=O)NC1=O` [Methylhydantoin-5-(D)]: the normalised cell viability reads like this: (treatment time: 3 days) 1.02 ± 0.26; (treatment time: 6 days) 1.067 ± 0.0084.

For the molecule `NC(=O)OCC(COC(N)=O)c1ccccc1` [Felbamate], the normalised cell viability reads like this: (treatment time: 3 days) 1.04 ± 0.037; (treatment time: 6 days) 1.08 ± 0.054.

In the case of `N=C(N)NCc1cccc(I)c1` [Iobenguane sulfate], the normalised cell viability reads like this: (treatment time: 3 days) 1.1 ± 0.017; (treatment time: 6 days) 1.15 ± 0.28.

Turning to `NCCCC(O)(P(=O)(O)O)P(=O)(O)O` [Alendronate sodium], the normalised cell viability reads like this: (treatment time: 3 days) 0.685 ± 0.073; (treatment time: 6 days) 0.565 ± 0.024.

Take `CNC[C@H](O)[C@@H](O)[C@H](O)[C@H](O)CO` [Meglumine]: the normalised cell viability by setting is: (treatment time: 3 days) 0.938 ± 0.094; (treatment time: 6 days) 0.983 ± 0.037.

Take `Nc1ccc(S(=O)(=O)Nc2cnc3ccccc3n2)cc1` [Sulfaquinoxaline sodium salt]: the normalised cell viability was determined as 1.04 ± 0.034 (treatment time: 3 days) and 1.18 ± 0.14 (treatment time: 6 days).

In the case of `CN(C)CCn1nnnc1SCC1=C(C(=O)O)N2C(=O)[C@@H](NC(=O)Cc3csc(N)n3)[C@H]2SC1` [Cefotiam hydrochloride], the normalised cell viability stood at 1.03 ± 0.043 (treatment time: 3 days) and 0.992 ± 0.04 (treatment time: 6 days).

Consider `CC(=O)N[C@@H](CS)C(=O)O` [Acetylcysteine], for which the normalised cell viability was found to be 0.9896 ± 0.0073 (treatment time: 3 days) and 1.02 ± 0.025 (treatment time: 6 days).

As to `CC(=O)O[C@H]1C[C@@]2(C)[C@@H](C[C@@H](O)[C@H]3[C@@]4(C)CC[C@@H](O)[C@@H](C)[C@@H]4CC[C@@]32C)/C1=C(\CCC=C(C)C)C(=O)O` [Fusidic acid sodium salt], the normalised cell viability by setting is: (treatment time: 3 days) 0.954 ± 0.013; (treatment time: 6 days) 1.08 ± 0.072.

For `CCN(CC)CCOC(=O)c1ccc(N)cc1` [Procaine hydrochloride], the normalised cell viability by setting is: (treatment time: 3 days) 1.026 ± 0.0094; (treatment time: 6 days) 0.989 ± 0.019.
